≈ marks a conversion by molar mass, not a printed value. At least one peptide structure holds a part that was inferred or is arguable (an end, a ring closure or a residue). Numbered stars: 1 amine (or outer) side, 2 acyl side, 3 side chain; on linkers, the order of the positions; unused ones are H or OH. Square brackets hold non-standard residues; d marks the D form. Peptide text beside a SMILES is read from it. NMePhe(2-F) = CN[C@@H](Cc1ccccc1F)C(=O)O; NMeVal(β-OH) = CN[C@H](C(=O)O)C(C)(C)O; Phe(2-F) = N[C@@H](Cc1ccccc1F)C(=O)O; NMeF = CN[C@@H](Cc1ccccc1)C(=O)O; aIle = CC[C@@H](C)[C@H](N)C(=O)O; X1 = CCC(C)C(O[*:1])C(=O)[*:2]; NMeV = CN[C@H](C(=O)O)C(C)C; NMeS = CN[C@@H](CO)C(=O)O; Nle = CCCC[C@H](N)C(=O)O; Thz = O=C(O)[C@@H]1CSCN1; Nva = CCC[C@H](N)C(=O)O; Sar = CNCC(=O)O
How the values were obtained:
Assay in all cases: MIC by agar dilution method, Casitone agar medium
Assay type in all cases: cell-based
[1] = system: Candida albicans TIMM 0171
[2] = system: Aspergillus fumigatus F-48; settings: for MIC: agar dilution, Casitone agar
[3] = system: Candida glabrata TIMM 1062
[4] = system: Candida kefyr TIMM 0301
[5] = system: Cryptococcus neoformans TIMM 0354
[6] = system: Candida albicans TIMM 0144
[7] = system: Candida albicans TIMM 0136

CCCC[C@@H]1NC(=O)[C@@H]2CCCN2C(=O)[C@H](Cc2ccccc2)N(C)C(=O)[C@H](Cc2ccccc2)NC(=O)[C@H](C(C)C)N(C)C(=O)C(C(C)CC)OC(=O)[C@H](C(C)(C)O)N(C)C(=O)[C@H](CC(C)C)NC(=O)[C@H](C(C)C)N(C)C1=O (stereo partly drawn) [Compound 6] (cyclo(F[NMeF]P[Nle][NMeV]L[NMeVal(β-OH)][X1][NMeV]))
MIC [1]: 0.20 µg/mL (≈ 0.182 µM) | MIC [2]: > 25 µg/mL | MIC [3]: 0.78 µg/mL (≈ 0.708 µM) | MIC [4]: 1.56 µg/mL (≈ 1.42 µM) | MIC [5]: > 25 µg/mL | MIC [6]: 0.20 µg/mL (≈ 0.182 µM) | MIC [7]: 0.20 µg/mL (≈ 0.182 µM)

CCC(C)C1OC(=O)[C@H](C(C)(C)O)N(C)C(=O)[C@H](CC(C)C)NC(=O)[C@H](C(C)C)N(C)C(=O)[C@H]([C@H](C)CC)NC(=O)[C@@H]2CCCN2C(=O)[C@H](Cc2ccccc2F)N(C)C(=O)[C@H](Cc2ccccc2F)NC(=O)[C@H](C(C)C)N(C)C1=O (stereo partly drawn) [Compound 1] (cyclo(L[NMeVal(β-OH)][X1][NMeV][Phe(2-F)][NMePhe(2-F)]P[aIle][NMeV]))
MIC [1]: 0.10 µg/mL (≈ 0.0879 µM) | MIC [2]: > 25 µg/mL | MIC [3]: 0.20 µg/mL (≈ 0.176 µM) | MIC [4]: 0.20 µg/mL (≈ 0.176 µM) | MIC [5]: > 25 µg/mL | MIC [6]: 0.10 µg/mL (≈ 0.0879 µM) | MIC [7]: 0.10 µg/mL (≈ 0.0879 µM)

CCC(C)C1OC(=O)CN(C)C(=O)[C@H](CC(C)C)NC(=O)[C@H](C(C)C)N(C)C(=O)[C@H]([C@H](C)CC)NC(=O)[C@@H]2CCCN2C(=O)[C@H](Cc2ccccc2)N(C)C(=O)[C@H](Cc2ccccc2)NC(=O)[C@H](C(C)C)N(C)C1=O (stereo partly drawn) [Compound 10] (cyclo(F[NMeF]P[aIle][NMeV]L[Sar][X1][NMeV]))
MIC [1]: 3.12 µg/mL (≈ 2.99 µM) | MIC [2]: > 25 µg/mL | MIC [3]: > 25 µg/mL | MIC [4]: > 25 µg/mL | MIC [5]: > 25 µg/mL | MIC [6]: 25 µg/mL (≈ 24 µM) | MIC [7]: 25 µg/mL (≈ 24 µM)

CCC(C)C1OC(=O)[C@H](C(C)(C)O)N(C)C(=O)[C@H](CC(C)C)NC(=O)[C@H](C(C)C)N(C)C(=O)[C@H]([C@H](C)CC)NC(=O)[C@@H]2CCCN2C(=O)CN(C)C(=O)[C@H](Cc2ccccc2)NC(=O)[C@H](C(C)C)N(C)C1=O (stereo partly drawn) [Compound 8] (cyclo(F[Sar]P[aIle][NMeV]L[NMeVal(β-OH)][X1][NMeV]))
MIC [1]: 0.05 µg/mL (≈ 0.0494 µM) | activity against Aspergillus fumigatus F-48 (in words) [2]: active | MIC [2]: 12.5 µg/mL (≈ 12.4 µM) | MIC [3]: 0.78 µg/mL (≈ 0.771 µM) | MIC [4]: 0.10 µg/mL (≈ 0.0989 µM) | MIC [5]: 12.5 µg/mL (≈ 12.4 µM) | MIC [6]: 0.10 µg/mL (≈ 0.0989 µM) | MIC [7]: 0.10 µg/mL (≈ 0.0989 µM)

CCC(C)C1OC(=O)[C@H](C(C)(C)O)N(C)C(=O)[C@H](CC(C)C)NC(=O)[C@H](C(C)C)N(C)C(=O)[C@H]([C@H](C)CC)NC(=O)[C@@H]2CSCN2C(=O)[C@H](Cc2ccccc2)N(C)C(=O)[C@H](Cc2ccccc2)NC(=O)[C@H](C(C)C)N(C)C1=O (stereo partly drawn) [Compound 5] (cyclo(F[NMeF][Thz][aIle][NMeV]L[NMeVal(β-OH)][X1][NMeV]))
MIC [1]: 0.05 µg/mL (≈ 0.0447 µM) | MIC [2]: > 25 µg/mL | MIC [3]: 0.39 µg/mL (≈ 0.348 µM) | MIC [4]: 0.20 µg/mL (≈ 0.179 µM) | MIC [5]: 6.25 µg/mL (≈ 5.58 µM) | MIC [6]: 0.10 µg/mL (≈ 0.0893 µM) | MIC [7]: 0.05 µg/mL (≈ 0.0447 µM)

CCC(C)C1OC(=O)CN(C)C(=O)[C@H](CC(C)C)NC(=O)[C@H](C(C)C)N(C)C(=O)[C@H]([C@H](C)CC)NC(=O)[C@@H]2CCCN2C(=O)CN(C)C(=O)[C@H](Cc2ccccc2)NC(=O)[C@H](C(C)C)N(C)C1=O (stereo partly drawn) [Compound 11] (cyclo(F[Sar]P[aIle][NMeV]L[Sar][X1][NMeV]))
MIC [1]: 6.25 µg/mL (≈ 6.56 µM) | MIC [2]: > 25 µg/mL | MIC [3]: > 25 µg/mL | MIC [4]: > 25 µg/mL | MIC [5]: > 25 µg/mL | MIC [6]: 25 µg/mL (≈ 26.2 µM) | MIC [7]: 25 µg/mL (≈ 26.2 µM)

CCC[C@@H]1NC(=O)[C@H](C(C)C)N(C)C(=O)[C@H]([C@H](C)CC)NC(=O)[C@@H]2CCCN2C(=O)[C@H](Cc2ccccc2)N(C)C(=O)[C@H](Cc2ccccc2)NC(=O)[C@H](C(C)C)N(C)C(=O)C(C(C)CC)OC(=O)[C@H](C(C)(C)O)N(C)C1=O (stereo partly drawn) [Compound 7] (cyclo(F[NMeF]P[aIle][NMeV][Nva][NMeVal(β-OH)][X1][NMeV]))
MIC [1]: 0.10 µg/mL (≈ 0.092 µM) | MIC [2]: > 25 µg/mL | MIC [3]: 0.20 µg/mL (≈ 0.184 µM) | MIC [4]: 0.20 µg/mL (≈ 0.184 µM) | MIC [5]: 6.25 µg/mL (≈ 5.75 µM) | MIC [6]: 0.10 µg/mL (≈ 0.092 µM) | MIC [7]: 0.05 µg/mL (≈ 0.046 µM)

CCC(C)C1OC(=O)[C@H](C(C)(C)O)N(C)C(=O)[C@H](CC(C)C)NC(=O)[C@H](C(C)C)N(C)C(=O)[C@H]([C@H](C)CC)NC(=O)[C@@H]2CCCN2C(=O)[C@H](CO)N(C)C(=O)[C@H](Cc2ccccc2)NC(=O)[C@H](C(C)C)N(C)C1=O (stereo partly drawn) [Compound 9] (cyclo(F[NMeS]P[aIle][NMeV]L[NMeVal(β-OH)][X1][NMeV]))
MIC [1]: 1.56 µg/mL (≈ 1.5 µM) | MIC [2]: > 25 µg/mL | MIC [3]: 12.5 µg/mL (≈ 12 µM) | MIC [4]: 3.12 µg/mL (≈ 3 µM) | MIC [5]: > 25 µg/mL | MIC [6]: 3.12 µg/mL (≈ 3 µM) | MIC [7]: 6.25 µg/mL (≈ 6 µM)
